PubChem BioAssay AID588342 (National Center for Advancing Translational Sciences (NCATS), 2011)
Among all 360,000 compounds or so, about 25,000 (6.9%) were called active. The shares of active, inactive and inconclusive entries below differ from those in the screen. Calls follow the shape of the dose curve; as a rule, active = well fitted inhibition curve with a large enough effect; inconclusive = small, poorly fitted or top-dose-only effect; inactive = flat fitted curve, though single readings scatter. Potencies of inconclusive entries are doubtful fits and often do not repeat.

Target: Luciferin 4-monooxygenase (Photinus pyralis) (UniProt P08659)
Test: qHTS profiling assay for firefly luciferase inhibitor/activator using purifed enzyme and Km concentrations of substrates (counterscreen for miR-21 project); also: nearly all actives have a fitted effect of over 55% in size;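 as to activity change, negative = inhibition: plate controls were vehicle for no effect and reference inhibitor for full effect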
Details: purified FLuc, luminescence inhibition; activity change, negative = inhibition: at 57.5 µM (top of the series)
Method in brief: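 Purified P. pyralis luciferase (10nM final) with 10uM D-luciferin and 10uM ATP (Km levels) in 50mM Tris acetate pH 7.5, 10mM Mg acetate, 0.01% Tween-20, 0.05% BSA; qHTS 6-point titration, ~60 µM downward; luminescence read.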
Potency is read from the fitted curve at half-maximal effect; tags tell the direction and shape of the fitted curve.

Sequence of UniProt P08659 (P08659 whole entry, looked up): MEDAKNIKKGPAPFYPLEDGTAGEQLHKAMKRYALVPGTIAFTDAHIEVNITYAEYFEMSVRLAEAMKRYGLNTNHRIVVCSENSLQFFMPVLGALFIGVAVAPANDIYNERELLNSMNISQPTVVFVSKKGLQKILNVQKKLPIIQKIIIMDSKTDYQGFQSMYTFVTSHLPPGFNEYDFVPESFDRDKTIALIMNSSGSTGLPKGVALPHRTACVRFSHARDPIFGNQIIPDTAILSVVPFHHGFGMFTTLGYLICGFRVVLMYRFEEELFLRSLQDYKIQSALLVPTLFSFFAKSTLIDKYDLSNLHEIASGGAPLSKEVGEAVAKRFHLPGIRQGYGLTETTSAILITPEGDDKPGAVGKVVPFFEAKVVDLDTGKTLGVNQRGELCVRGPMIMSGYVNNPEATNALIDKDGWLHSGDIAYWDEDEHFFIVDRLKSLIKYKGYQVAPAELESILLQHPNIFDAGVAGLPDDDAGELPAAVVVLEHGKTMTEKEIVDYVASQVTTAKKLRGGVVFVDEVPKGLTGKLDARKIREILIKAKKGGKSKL

SMILES	Potency	activity change, negative = inhibition
CC(C)(C)c1csc(NC(=O)c2cccs2)n1	active: 10.7 µM	
O=C(CN1C(=O)CCSc2ccc(S(=O)(=O)N3CCCC3)cc21)Nc1ccccc1	inactive	
Cc1nc(-c2noc(-c3ccc(Cl)cc3)n2)c(C(F)(F)F)o1	inconclusive: 13.5 µM [inhibitor, partial curve]	
Cc1cc2n(n1)C(c1sccc1C)Nc1ccccc1-2 (stereo unspecified)	inconclusive: 23.9 µM [inhibitor, partial curve, poor fit]	
CCC(Oc1ccccc1)C(=O)Nc1ccc(O)c(-c2nc3cc(C)ccc3o2)c1 (stereo unspecified)	active: 15.1 µM	
O=[N+]([O-])c1ccc2oc(-c3ccccc3)nc2c1	inconclusive: 2.69 µM [inhibitor, full curve]	
COc1ccc(N=C(N)SCc2ccccn2)cc1	inconclusive: 37.9 µM [inhibitor, partial curve, poor fit]	
Cc1cccc(C(=O)Nc2cccc(-c3cnc4ccccc4n3)c2)c1		inactive: 1.76%
COc1ccc(CC(=O)Nc2cccc(C(=O)Nc3cccc(C)c3)c2)cc1		inactive: -6.13%
CCCn1c(SCc2nc(-c3ccccc3C)no2)nnc1-c1ccc(Cl)cc1		inactive: -2.96%
C=CCN(C(=O)CN1CCCCC1)c1nc(-c2ccccc2)cs1	inconclusive: 37.9 µM [inhibitor, partial curve, poor fit]	
CC1CCC2C(C1)c1sc(=O)[nH]c1SC2(C)C (stereo unspecified)		inactive: 1.17%
O=C(Nc1ccc(C(F)(F)F)cc1[N+](=O)[O-])O[C@H]1[C@H](Cc2ccccc2)NS(=O)(=O)[C@H]2C[C@@H]3C=C[C@]12O3		inactive: -0.998%
CC(C)(C)n1cnc2cc(NC(=O)c3cccs3)ccc21	active: 7.57 µM	
CC(C)NC(=O)CCCc1ccccc1	inconclusive: 23.9 µM [inhibitor, partial curve, poor fit]	
Cc1ccc(-c2cc(-c3ccc(C)cc3O)[nH]n2)cc1	active: 2.39 µM	
O=C1CN(C(=O)Cc2ccc(F)cc2)C(c2ccccc2)c2cc(Br)ccc2N1 (stereo unspecified)		inactive: -9.75%
Cc1ccc(C)c(OCC(=O)Nc2c[nH]c(=O)[nH]c2=O)c1		inactive: -1.03%
COc1cc(/C=N/NC(=O)c2ccccn2)ccc1OC(=O)c1ccccc1Br	active: 4.78 µM	
COc1ccc(C(=O)N/C(=C\c2cccc3ccccc23)C(=O)N2CCN(C)CC2)cc1		inactive: 6.31%
CCOC(=O)N/N=C/c1ccc(N2CCOCC2)s1	inconclusive: 37.9 µM [inhibitor, partial curve, poor fit]	
CC(C)Oc1cccc(C(=O)Nc2ccc(N3CCN(C)CC3)cc2)c1	inconclusive: 19 µM [inhibitor, partial curve]	
CN(C(=O)c1ccc(NC(=O)Cc2ccc(NC(=O)C3CCN(C(=O)CCc4ccccc4)CC3)cc2)cc1)C1CC1	inconclusive: 17.8 µM [inhibitor, partial curve, poor fit]	

SMILES	Potency	activity change, negative = inhibition
COc1ccc(C2CC(=O)N(C)c3ccccc3S2)cc1 (stereo unspecified)	active: 23.9 µM	
S=C(NCC1CCCO1)Nc1ccc(Cl)cc1Cl (stereo unspecified)	inconclusive: 19 µM [inhibitor, partial curve]	
O=C(COC(=O)c1cc(-c2cccs2)nc2ccccc12)c1ccc(Br)cc1	inconclusive: 2.39 µM [inhibitor, full curve]	
O=C(CCC(=O)c1ccc(F)cc1)OC1CCOC1=O (stereo unspecified)	inconclusive: 23.9 µM [inhibitor, partial curve]	
COc1ccc(CNC(=O)COc2ccc(S(=O)(=O)N3CCCCC3)cc2Cl)cc1	inconclusive: 30.1 µM [inhibitor, partial curve, poor fit]	
O=C(NNC(=S)Nc1ccccc1Cl)c1ccccc1Br	active: 10.7 µM	
COc1ccc(-c2noc(C3CCCN(C(=O)c4cccs4)C3)n2)cc1 (stereo unspecified)	inconclusive: 21.3 µM [inhibitor, single point]	
COc1cccc(/C=C/C(=O)c2cccc([N+](=O)[O-])c2)c1OC	active: 10.7 µM	
CCOc1cccc2cc(-c3nc4sc5c(c4c(=O)[nH]3)CCC(C(C)(C)C)C5)c(=O)oc12 (stereo unspecified)	inconclusive: 23.9 µM [inhibitor, partial curve, poor fit]	
Cc1cccc(-n2c(C)n[nH]c2=S)c1C		inactive: -1.33%
COc1ccc(Br)cc1CNC(=O)c1cc(=O)[nH]c2ccc(S(=O)(=O)N3CCCC3)cc12		inactive: -0.37%
COc1cccc(-c2cc(C(=O)NC3CC3)c3ccccc3n2)c1	inconclusive: 16.9 µM [inhibitor, partial curve, poor fit]	
COc1ccc(/C=N\Nc2ccc([N+](=O)[O-])cc2)c(C(=O)O)c1OC	inconclusive: 37.9 µM [inhibitor, partial curve, poor fit]	
Cc1ccc(CSCc2nc3ccccc3[nH]2)cc1	inconclusive: 37.9 µM [inhibitor, partial curve, poor fit]	
O=C(Nc1cccnc1)c1ccccc1-c1nc(-c2ccccc2F)no1	inconclusive: 26.9 µM [inhibitor, partial curve, poor fit]	
CC1=C(C)C(C)=C(C#N)C(=C(C#N)C#N)N1	inconclusive: 37.9 µM [inhibitor, partial curve, poor fit]	
CCOC(=O)c1cc(S(=O)(=O)Nc2ccc(Br)c(C)c2)[nH]n1	inconclusive: 23.9 µM [inhibitor, partial curve, poor fit]	
COc1cccc(C(=O)Nc2ccc(NC(=O)c3ccco3)nc2)c1	active: 21.3 µM	
COc1ccc(-n2c(C)cc(C(=O)CSc3ccc(NC(C)=O)cc3)c2C)cc1	inconclusive: 16.9 µM [inhibitor, partial curve]	
O=C(O)c1cccc(-c2ccc3c(c2)OCO3)c1	inconclusive: 37.9 µM [inhibitor, single point]	
Cn1cccc1/C=C1\SC(=O)N(c2ccccc2)C1=O	active: 2.39 µM	
COc1cc(SC)ccc1C(=O)NCc1ccc(C)cc1	inconclusive: 21.3 µM [inhibitor, partial curve]	
O=C(CN(Cc1ccc(F)cc1)C(=O)CNS(=O)(=O)c1ccccc1)NCc1ccco1		inactive: 2.75%
